This passage reports activation results from PubChem BioAssay AID1346428 (National Center for Advancing Translational Sciences (NCATS), 2018).

Structures are written as SMILES. Values joined by “and” are separate entries in the source; they are usually repeats but may differ in a detail not shown here. Equal values may be shown once. Out of some 48,000 compounds screened, about 1,200 (2.5%) were called active. Another 2% or so got no clear call; they are omitted.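 The calls were made as follows: active = activation of at least 60% and not above a set upper limit (about 1 call in 100 departs from these limits); inconclusive = activation of 40% to 60%, or above that upper limit; inactive = activation under 40%.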 This is one part of the list.

In this assay the target is Probable G-protein coupled receptor 32 (Homo sapiens) (UniProt O75388). Description: qHTS for Agonists of Human Resolvin D1 Receptor DRV1. Also: 0% is about no effect. The conditions noted are these: CHO-K1 GPR32 beta-arrestin PathHunter luminescence, 90 min; at 76.9 µM; active compounds read high; zero percent set by DMSO-only wells. In outline: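 Step 1: seed CHO-K1 GPR32 beta-arrestin cells, 2,500/well, overnight at 37 °C. Step 2: add compounds, 90 min at 37 °C. Step 3: detection reagent, 1 h ambient, then luminescence.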
UniProt O75388, sequence (O75388 whole entry, looked up): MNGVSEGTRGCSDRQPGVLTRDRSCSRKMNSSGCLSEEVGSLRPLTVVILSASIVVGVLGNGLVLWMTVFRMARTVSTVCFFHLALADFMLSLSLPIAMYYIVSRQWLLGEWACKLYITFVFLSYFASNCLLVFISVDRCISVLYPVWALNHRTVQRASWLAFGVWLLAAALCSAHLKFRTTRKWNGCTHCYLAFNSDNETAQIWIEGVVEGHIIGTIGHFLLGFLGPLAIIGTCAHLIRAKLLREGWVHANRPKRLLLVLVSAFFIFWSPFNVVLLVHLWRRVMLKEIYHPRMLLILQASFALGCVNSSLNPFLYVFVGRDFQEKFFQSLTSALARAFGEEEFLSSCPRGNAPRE
As for `COc1ccc(Cl)cc1NC(=O)CN1C(=O)CN=C(c2ccccc2)c2cc(Cl)ccc21`, the activation was inactive: -11.9%. As to `CC[n+]1c(-c2ccccc2)c2cc(N)ccc2c2ccc(N)cc21`, the activation is inactive: -43.8%.

Regarding `Cc1ccc(-n2c(/C=C/c3ccc(Br)s3)nc3ccccc3c2=O)cc1`, the activation was inactive: 14.9%. The same measure for `Oc1ccc2c3c1O[C@H]1c4oc5ccccc5c4C[C@@]4(O)C(C2)N(CC2CC2)CCC314` (stereo not given in full): inactive: -24.1%; for `CCCCC1C(=O)NC(=O)N(C2CCCCC2)C1=O` (stereo not given): inactive: -6.02%. With `Clc1cccc(SC2CCNCC2)n1`, the activation is inactive: -12.7%.

As to `CCOC(=O)c1ncn2c1CN(C)C(=O)c1c(I)cccc1-2`, the activation is inactive: 0.99%.

With `O=C(O)Cc1ccccc1`, the activation was inactive: 0.0463%. Regarding `CN1C(=O)[C@@H](NC(=O)c2cc3ccccc3[nH]2)N=C(c2ccccc2)c2ccccc21`, the activation was inactive: -0.368%. The same measure for `c1cc2c(c(N3CCNCC3)c1)OCCO2`: inactive: -8.94%; for `CCS(=O)(=O)C(C)(C)S(=O)(=O)CC`: inactive: -13.3%; for `CN(C)CCc1c[nH]c2cccc(OP(=O)(O)O)c12`: inactive: 26.8%. The same measure for `Cc1cccc(NC(=O)Cn2cc(C(=O)c3ccccc3)c3ccccc32)c1`: inactive: -17.4%. The same measure for `O=c1[nH]c2cc(Cl)ccc2n1C1CCNCC1`: inactive: -3.9%; for `O=c1c2ccccc2nc(/C=C\c2ccc(F)cc2)n1-c1ccccc1F`: inactive: -7.28%. On to `c1ccc(CCCN2CCN(CCOC(c3ccccc3)c3ccccc3)CC2)cc1`, for which the activation was inactive: -20%. As for `CC(=O)NS(=O)(=O)c1ccc(NC(=O)c2cccn(Cc3ccc(Cl)cc3)c2=O)cc1`, the figure is inactive: -8.74%; as for `COc1ccc(OCC(=O)N2CCN(Cc3cc(=O)n4nc(-c5ccccc5C)sc4n3)CC2)cc1`, inactive: 36.2%; as for `CCCn1c(C)c(C(=O)c2ccc3ccccc3c2)c2ccccc21`, inactive: -23%. The same measure for `O=C(CCc1nc(C2=CCN(Cc3cccc(Cl)c3)CC2)no1)Nc1ccccc1F`: active: 69.9%. For the compound `C[C@]12CCC(=O)C=C1CC[C@@H]1[C@@H]2CC[C@@]2(C)[C@H]1CC[C@]2(C)O`, the activation was inactive: -11.5%. The same measure for `CC(C)NCC(O)c1ccc(N)c(C#N)c1` (stereo not given): inactive: -15%.

As for `CNCC(O)c1ccc(O)cc1` (stereo not given), the activation was inactive: 4.09% and inactive: -3.25%. The same measure for `CC(Cc1ccccc1)NCCCCl` (stereo not given): inactive: -55.4%; for `O=C(COc1ccccc1Cl)N1CCN(CCc2ccncc2)CC1`: inactive: -9.53%; for `C#CCOC(=O)C1=CCCN(C)C1`: inactive: 9.09%.

`O=C(Cc1ccc(Cl)c(Cl)c1)N1CCCCC1CN1CCCC1` (stereo not given): the activation is inactive: -7.18%. As to `O=C(COc1cccc(Cl)c1)N1CCN(CCc2ccncc2)CC1`, the activation is inactive: -9.08%. In the case of `CCCN(CCC)c1c([N+](=O)[O-])cc(S(N)(=O)=O)cc1[N+](=O)[O-]`, the activation was inactive: -76.5%. As for `Cc1ccc(Cn2cccc(C(=O)Nc3cc([N+](=O)[O-])ccc3C)c2=O)cc1`, the figure is inactive: -6.28%. The same measure for `O=S1(=O)N(Cc2ccccc2)CCCN1Cc1cccc(Cl)c1`: inactive: 15.7%; for `COCC(=O)N(c1c(C)cccc1C)C(C)C(=O)OC` (stereo not given): inactive: 8.47%.

For `Cc1ccc(-c2nc(CN3C(=O)CN=C(c4ccccc4)c4cc(Cl)ccc43)c(C)o2)cc1`, the activation was inactive: -36.5%. As for `Cc1cc(NC(=O)c2cccn(Cc3cccc(Cl)c3)c2=O)no1`, the figure is inactive: -0.151%. The same measure for `O=C(O)CCCOc1ccc(Cl)cc1Cl`: inactive: 19.9%; for `NCC(CP(=O)(O)O)c1ccc(Cl)cc1` (stereo not given): inactive: 0.222%; for `Cc1cccc(-n2c(/C=C/c3cn(C)c4ccccc34)nc3ccccc3c2=O)c1`: inactive: -20.3%. Consider `c1ccc(C2CC2)c(OCC2=NCCN2)c1`, for which the activation was inactive: 3.66% and inactive: -0.357%.

For the compound `O=C(Nc1ccon1)c1cccn(Cc2ccccc2)c1=O`, the activation was inactive: 27.8%.

In the case of `CC[C@H]1C[C@@H]2C[C@H]3c4[nH]c5ccc(OC)cc5c4CCN(C2)[C@@H]13`, the activation was inactive: -23.1%. `C[C@]12CCC(=O)C(O)=C1CC[C@@H]1[C@@H]2CC[C@]2(C)C(=O)CC[C@@H]12`: the activation is inactive: 10.9% and inactive: 4.65%. The same measure for `COc1ccc(/C=C/c2nc3ccccc3c(=O)n2-c2ccc(C)cc2)cc1O`: inactive: -16.7%; for `OC(O)C(Cl)(Cl)Cl`: inactive: -8.84%; for `CNC(C)(C)Cc1ccccc1`: inactive: 2.44%. In the case of `CCOP(=S)(OCC)Oc1cc(C)nc(C(C)C)n1`, the activation is inactive: 6.58%.
